Reference: PubChem BioAssay AID1963576 (National Center for Advancing Translational Sciences (NCATS), 2024)
The whole screen tested about 46,000 compounds, of which about 60 (0.1%) were called active. About 3% were inconclusive and are not listed. Calls follow the shape of the dose curve; as a rule, active = well fitted inhibition curve with a large enough effect; inconclusive = small, poorly fitted or top-dose-only effect; inactive = no such curve, though single readings can be large or run the other way. The list shows a part of the results.

test: Primary qHTS assay for Inhibitors of ovarian cancer metastasis using an organotypic tumor microenvironment (TME) model.; also: nearly all actives have a fitted effect of over 65% in size;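 as to activity change, negative = inhibition: plate controls were DMSO wells for no effect and tomatine positive control wells for full effect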; conditions: SKOV3ip1-GFP adhesion/invasion on 3D omental model, fluorescence; series mostly up to 45.8 µM; activity change, negative = inhibition: at the top concentration
Procedure, shortened: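 Primary human omental fibroblast/mesothelial 3D culture pre-formed 48 h. SKOV3ip1-GFP cells added with compounds (0.36-46 umol/L), incubated 2 h RT/16 h 37 C, fixed; GFP cells quantified at 488/509 nm.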

Activity change, negative = inhibition, inactive:
NC(=O)c1cnccn1 3.19%, Cc1ccc(S(=O)(=O)N2CCN(Cc3ccccc3Cl)CC2)cc1 -9.49%, Cc1ccc(Cn2c(C(=O)O)c(CNCc3ccc(C)o3)c3ccc(C)cc32)cc1 70.8%, CCOC(=O)c1c(NC(=O)c2cc(=O)c3cc(C)ccc3o2)sc2c1CCCC2 -24.3%, Cc1ccc2oc(C(=O)Nc3sc4c(c3C(=O)NCC3CCCO3)CCC4)cc(=O)c2c1 (stereo not drawn) 2.28%, CCN(CC)c1ccc(NC(=O)CN2CCN(CC(=O)Nc3ccc(Cl)cc3)CC2)cc1 1.63%, O=C(NCCC1=CCCCC1)c1ccc2c(c1)sc1nc(-c3ccc(F)cc3)cn12 4.34%, O=C(NCCc1ccccc1)c1ccc2c(c1)N(Cc1ccc(F)cc1)C(=O)CS2 -5.45%, COC(=O)c1ccccc1NC(=O)c1nc(-c2ccc(C)cc2)n2c1CCCCC2 4.22%, CC(NC(=O)Cn1c(=O)oc2cc(S(=O)(=O)N3CCCCCC3)ccc21)c1ccccc1 (stereo not drawn) -6.14%, CC(NC(=O)c1cc2c(=O)n3ccccc3nc2n(C(C)C)c1=N)c1ccccc1 (stereo not drawn) -15.9%, Nc1nc(N)c(N=O)c(OCC2CCCCC2)n1 1.67%, COCCNC(=O)Cn1nc(-c2ccccc2)c2ccccc2c1=O 4.63%, CC(=O)N1c2ccccc2C(=O)C1N1CCN(c2cccc(Cl)c2)CC1 (stereo not drawn) -2.38%, COc1cc(NC(=O)CN2C(=O)CCc3cc(Br)ccc32)cc(OC)c1OC -10.5%, Cc1ccc(C2=NN(CC(=O)NCCc3ccccc3)C(=O)CC2)cc1 -3.19%, Cc1cccc(OC(=O)CSc2nnc(-c3ccc4c(c3)OCO4)o2)c1C -15.2%, Cc1cn(C)c(CC(=O)NCc2ccc(Cl)cc2)c1C(=O)O 7.31%, COc1cccc(Cn2c(=O)n(CC3CCC(C(=O)NC(C)C)CC3)c(=O)c3sccc32)c1 (stereo not drawn) 5.03%, COc1ccccc1NC(=O)CC(C)n1nc(C)cc1C (stereo not drawn) 7.1%, CCOc1ccc(C2c3c(-c4cc(C)ccc4O)n[nH]c3C(=O)N2Cc2cccnc2)cc1OCC (stereo not drawn) 0.637%, Cc1ccc(N(CC(=O)N2CCN(c3ccc(F)cc3)CC2)S(=O)(=O)c2c(C)noc2C)cc1 0.659%, CC(C)(C)C(=O)NCCc1nc2ccccc2n1CCCCOc1ccccc1 9.28%, Cc1ccc2c(=O)c(C(=O)c3cccc(Cl)c3)cn(CC(=O)NC3CCCCC3)c2n1 1.59%, CCOC(=O)c1ccc(NC(=O)CSc2nc3c(c(=O)[nH]2)CN(Cc2ccccc2)CC3)cc1 4.88%, CCOC(=O)N1CCC(NC(=O)c2c(C)nn(-c3cccc(C)c3)c2-n2cccc2)CC1 -13.1%, COc1ccccc1Nc1ncc2c(n1)CCN(Cc1ccc(C)s1)C2 -2.72%, Cc1cc(F)ccc1NC(=O)CCS(=O)(=O)c1cc2c(cc1C)NC(=O)CO2 -21.3%, CCOc1ccccc1CNCCCSc1nnnn1C -5.66%, O=S(=O)(NCc1ccc(F)cc1)c1ccc(N2CCCCS2(=O)=O)cc1 -5.13%, Cc1ccc(CSc2cn(CC(=O)N3CCCCCC3)c3ccccc23)cc1 -11.3%, CCCN(Cc1cc2cccc(C)c2[nH]c1=O)C(=O)c1cccc(Cl)c1 -1.74%, COc1ccc(C2C=C(c3ccccc3)Nc3nc(NS(=O)(=O)c4ccccc4)nn32)cc1 (stereo not drawn) 2.83%, CCOC(=O)c1ccccc1NC(=O)CSc1c(C)cnc2c1c(=O)n(C)c(=O)n2C -9.77%, CC(CNC(=O)CCn1c(=O)c2cccn2c2ccc(F)cc21)c1ccccc1 (stereo not drawn) 5.37%, Cc1cc(C)c(S(=O)(=O)Nc2ccc3oc4c(c3c2)CCCC4)cc1C 0.623%, Cc1ccc(C)c(Cn2c(=O)n(-c3ccc(Cl)cc3)c(=O)c3c4c(sc32)CCC4)c1 0.308%, COc1cccc(NC(=O)c2c(-c3ccc(C)cc3)nnc3ccccc23)c1 2.01%, O=C(Nc1cccc(Cl)c1Cl)c1cc(S(=O)(=O)N2CCCCC2)ccc1F -9.87%, COc1ccccc1N1CCN(c2nc3ccc(C(=O)c4ccccc4)cc3n3c(C)nnc23)CC1 8.47%, CCc1nn(CC(=O)Nc2ccc(C)c(F)c2)c(=O)c2cc3cc(C)ccc3n12 41%, CCCN(Cc1cccs1)C(=O)Nc1cc(C)ccc1OC 3.7%, CC(=O)OC1=CN(Cc2ccccc2)S(=O)(=O)c2ccccc21 -12.6%, COc1ccc(OC)c(S(=O)(=O)NCCc2sc(-c3cccnc3)nc2C)c1 -18.8%, CCCCN1CC(c2nc3ccccc3n2CCCCOc2ccccc2C)CC1=O (stereo not drawn) -4.51%, CCOc1ccc(-c2nnc(SCC(=O)Nc3ccccc3C(F)(F)F)o2)cc1 3.61%, COc1ccccc1N1CCN(C2C(=O)c3ccccc3N2C(C)=O)CC1 (stereo not drawn) 25.8%, CCOc1ccc(S(=O)(=O)NCC(c2ccc(N(C)C)cc2)N2CCCC2)cc1 (stereo not drawn) -1.6%, Cc1ccc(-c2cn3c(n2)sc2cc(C(=O)NCCC4=CCCCC4)ccc23)c(C)c1 1.39%, COCCn1c(CNC(=O)c2cccc(N(C)C)c2)nc2cccnc21 -5.35%, CC(=O)c1ccc(N2CCN(C(=O)C3CCN(S(=O)(=O)c4ccc(Br)s4)CC3)CC2)cc1 -5.32%, COc1cc(OC)c(NS(=O)(=O)c2cc3c(cc2C)NC(=O)CO3)cc1Cl -6.31%, COCCCNC(=O)c1cn(CC(C)C)c(=O)c2c1c1ccccc1n2C -0.919%, Cc1nc2scc(C)n2c(=O)c1S(=O)(=O)Nc1cccc(O)c1 -9.39%, CCCCn1c(=O)n(Cc2ccccc2F)c(=O)c2[nH]c(Cc3ccc(NC(C)=O)cc3)nc21 -22.4%, Cc1ccc(NC(=O)c2nc(S(C)(=O)=O)ncc2N(Cc2ccco2)Cc2ccccc2F)c(C)c1 2.3%, CCOc1cccc2sc(NC(=O)c3ccc(S(=O)(=O)N4CCCc5ccccc54)cc3)nc12 0.289%, Cc1ccccc1S(=O)Cc1ccc(C(=O)NC2CCCCCC2)o1 (stereo not drawn) 4.87%, Cc1ccc(CCNC(=O)c2ccc3c(=O)n(-c4ccc(C)cc4)c(=O)[nH]c3c2)cc1 -9.79%, Cc1ccc(C)c(NC(=O)Nc2nnc(N(CC(C)C)CC(C)C)s2)c1 -9.43%, CCCOc1ccc(C2c3c(oc4ccccc4c3=O)C(=O)N2c2ccc(C)cn2)cc1OCC (stereo not drawn) -1.8%, CCOC(=O)c1ccc(CN(Cc2ccc(F)cc2)S(=O)(=O)c2ccc(F)cc2)cc1 -5.88%, Cc1cc2oc(C(=O)Nc3sc4c(c3C(=O)NCc3ccco3)CCC4)cc(=O)c2cc1C 1.78%, Cc1ccc2c(CNCc3cccc(Cl)c3)c(C(=O)O)n(Cc3ccc(F)cc3Cl)c2c1 2.26%, O=C(Cn1cc(SCc2cccc(F)c2)c2ccccc21)N1CCCC1 -1.9%, O=C(CNS(=O)(=O)c1cccs1)N1CCN(c2ccccc2Cl)CC1 0.516%, Cc1c(Cl)cccc1NC(=O)N1CCC(CN2CCCC2)CC1 -4.76%, COc1cccc(-n2nnc3c(sc4nc(C)cc(C)c43)c2=O)c1 0.599%, CC1=C(c2ccc(C)cc2)S(=O)(=O)N(Cc2ccc(C(=O)NCc3cccc(C)c3)cc2)C1=O 7.9%, COc1ccccc1CNS(=O)(=O)c1ccc2[nH]c3c(c2c1)CCCCC3 -17.4%, COc1ccc(N2CCN(C(=O)c3cnc(N4CCCC4)nc3C)CC2)cc1 4.41%, CSc1ccc(CNC(=O)CCn2ccc3cc(S(=O)(=O)N4CCC(C)CC4)ccc32)cc1 -2.3%, COc1ccc(CCNC(=O)Cc2c(C)c3c(cc(C)c4c(C)coc43)oc2=O)cc1 -0.247%, COc1ccc(-c2cc3nc(-c4ccccc4)cc(C(F)(F)F)n3n2)cc1 -10.3%, COCCCNC(=O)Cn1c(=O)n(Cc2ccc(C(=O)NCc3ccc(C)cc3)cc2)c(=O)c2ccccc21 5.05%, CCCCN(CCCC)CC(O)c1cc(Cl)cc2c1-c1ccc(Cl)cc1C2=Cc1ccc(Cl)cc1 (stereo not drawn) 5.27%, COC(=O)c1ccc(NC(=O)CSc2nc3ccc(OC)cc3[nH]2)cc1 3.52%, Cc1ccc(NC(=O)CSc2nc(C)c(Cc3ccccc3)c(=O)[nH]2)cc1 -1.91%

outcome, inactive:
Cc1cccc(NC(=O)CN2C(=O)C3(SCC(=O)N3c3ccccc3)c3ccccc32)c1 (stereo not drawn), CC(C)Cn1cc(NC(=O)NCc2cccc(Cl)c2)c2ccccc2c1=O, COc1ccc(NC(=O)c2cccc(N3CCCS3(=O)=O)c2)c(OC)c1, COc1cc(OC)c(C2CC(=O)Nc3ccc4ccccc4c32)cc1OC (stereo not drawn), Cc1ccc(CCNS(=O)(=O)c2ccc3c(c2)C(C(C)C)C(=O)N3)cc1 (stereo not drawn), COc1ccc(OC)c(CCNC(=O)CCCn2c(=O)c3cccn3c3ccc(F)cc32)c1, COc1cccc(CNC(=O)Cn2ncc3c(=O)oc4ccccc4c32)c1, COCCCNC(=O)c1ccc(CSc2nc3cccnc3n2Cc2ccc(OC)cc2)cc1, COc1ccc(CCNC(=O)C2CC(=O)N(CCc3ccccc3)C2)cc1OC (stereo not drawn), Cc1ccc(-c2onc(C)c2C)cc1S(=O)(=O)NCc1cccs1, COc1ccc(OC)c(CNC(=O)C2CCN(S(=O)(=O)N3CCCCC3)CC2)c1, O=C(c1ccc2c(c1)N(Cc1ccc(Cl)cc1)C(=O)c1ccccc1S2(=O)=O)N1CCCCCC1, Cc1cccc(C)c1Nc1c(-c2ccccc2Cl)nc2cnccn12, O=C(COc1ccc(F)cc1)Nc1ccc2nc(SCC(=O)N3CCCC3)sc2c1, CCOc1ccc(OCC)c(NC(=O)c2nnn(Cc3cc(Br)ccc3OC)c2N)c1, CCN(Cc1ccccc1)C(=O)CCS(=O)(=O)c1cc2c(cc1Cl)NC(=O)CO2, CCOC(=O)c1c(C)[nH]c(C)c1S(=O)(=O)N1CCC(C(=O)N2CCN(c3cccc(C)c3)C(C)C2)CC1 (stereo not drawn), Cc1ccc(C(=O)Nc2ccc3nc(SCC(=O)N4CCc5ccccc54)sc3c2)cc1, COc1ccc2oc(=O)c(-c3nc(-c4cc(OC)c(OC)c(OC)c4)no3)cc2c1, CCC(Sc1nc2ccccc2c2nc(CCc3c(C)n[nH]c3C)nn12)C(=O)Nc1ccc(F)cc1 (stereo not drawn)
